# The campaign covered roughly 150,000 compounds. About 540 (0.36%) showed an effect of 50% or more. This is one part of the list.
# Tested on: Plasmodium falciparum
# Experiment: Primary screen in NF54 nanoGlo assay, in single point, at 2uM, 72h; a lower Z score goes with more inhibition
# Type: functional, Erythrocyte
# Conditions: timepoint 72 hour
SMILES,% Inhibition,Z score
CC(C)(C)n1nnc(CN2CC(Cc3ccccc3Cl)C2)n1,-4%,0.43
O=C(Nc1ccc(C(F)(F)F)cc1)N1CCN(c2nc(-c3cccs3)nc3cc(Cl)ccc23)CC1,-9%,1.34
O=C(C[C@H]1COc2ccccc2N1Cc1ccc(F)cc1)NCc1ccc(F)cc1,-11%,1.52
CC(C)C1=NO[C@H](C(=O)NC2(CN3CCCCC3)CCCCC2)C1,-10%,1.63
Clc1ccc(CNC2=NCCNC23CCOCC3)cc1,-13%,1.7
Cc1nc([C@H](C)NCc2cc3cc4c(cc3nc2OCc2cccc(F)c2)OCO4)cs1,-10%,1.42
CC[C@@H](C(=O)N(C)Cc1ccc(-n2cccn2)cc1)N1CCOCC1,-13%,1.91
C=C1C(C)(C)[C@H]2CC[C@]1(c1nc(C3CC3)n[nH]1)C2,-8%,0.73
Cc1nc(CNC(=O)C[C@H]2CCOC2)cs1,-14%,1.86
Cc1cnc(NCC2(CO)CC3(CCC3)C2)nc1,7%,-0.88
Cc1cccc(C2c3cc(OC(C)C(=O)NCCN4CCCC4)ccc3CCN2C(=O)C2CCCC2)c1 (centres undefined),-6%,0.55
Cc1cc(NC(=O)N(CCC#N)CCC(F)(F)F)ccc1Br,-2%,0.34
COc1ccc(N2C(=O)CN(C(=O)C3CCCCC3)CC2(C)C)cc1,10%,-1.44
c1csc(CN2CCC(Nc3nnc(C4CCC4)o3)CC2)c1,-5%,0.56
Cc1ccc(CN(C)[C@@H](C)C(=O)NC(=O)NC2CCCCC2)o1,-10%,1.15
CS(=O)(=O)c1ccc(CN2CCOC[C@@H]2CC2CCC2)o1,-4%,0.57
Cc1cc(Nc2ccc(N(C)C)nc2)n2ncnc2n1,-2%,0.35
Cc1ccc(NC(=O)CC(C)NCC(C)(O)c2cccs2)c(C)c1 (centres undefined),0%,-0.04
CCCN(CCOC)C(=O)NCc1cc(O)ncn1,-6%,1.08
COc1ccc(NC(=O)C2CC(=O)OC2c2ccc3c(c2)OCCO3)cc1 (centres undefined),5%,-0.55
O=S(=O)(N[C@H]1CCCC12CCOCC2)c1cccc2ccoc12,-8%,1.58

SMILES,% Inhibition,Z score
O=C1NC2(CCC(c3ccccc3)CC2)C(=O)N1CN1CCC[C@H](C(F)(F)F)C1 (some centres undefined),-8%,1.46
O=C(c1cc(-c2ccc(O)cc2)n[nH]1)N1CC[C@@H]2OCc3cnnn3[C@H]2C1,-27%,2.85
CCCc1noc(CN[C@H](c2c(C)nn(C)c2C)C(F)(F)F)n1,-6%,0.77
COc1ccc(CN2CCN(CC(=O)Nc3ccccc3C(=O)NCc3ccco3)CC2)cc1F,4%,-0.44
N#Cc1ccccc1-c1nc2ccc(-c3ccc4c(c3)OCO4)cc2o1,-11%,1.58
CCOc1cccc(-n2cc(-c3ccccc3)nc2NC(=O)CN(C[C@H]2CCCO2)C(=O)c2cccc(OC)c2)c1,-11%,1.06
COc1cccc(CO[C@@H]2CN(C(=O)CCCn3cncn3)CC(=O)N(CC(C)C)C2)c1,7%,-0.88
COCCNC(=O)c1cnc2ccc(F)cc2c1O,4%,-0.56
CC1CCN(c2cc3c(cc2S(=O)(=O)N(C)C)C(=O)Nc2ccccc2O3)CC1,-10%,1.42
Cc1cnccc1CN(C)C(=O)CCCn1cccn1,-6%,1.08
CC(C)[C@@H]1N(C(=O)Nc2ccn(CC(=O)N(C)C)n2)CC12CCCC2,-2%,0.4
Cc1nnsc1CNC(=O)[C@H](C)c1n[nH]c(=O)c2ccccc12,-11%,1.44
Cn1nccc1C1(O)CCN(C(=O)OC2CCC2)CC1,0%,-0.07
COC(=O)N[C@@H](CC(C)C)C(=O)Nc1cc(CO)cc(CO)c1,3%,-0.44
COCCc1noc([C@@H]2CCCN2CC(=O)Nc2ccc(Cl)cn2)n1,-24%,3.1
CCCC1(C2CCN(C(=O)C(C)Oc3ccccc3)CC2)NC(=O)N(Cc2ccco2)C1=O (centres undefined),-16%,2.05
CCn1cc(OCC(=O)NCCc2cccs2)cn1,2%,-0.19
O=C(Nc1ccc2c(c1)OCO2)N1CCC(Oc2ccsc2)CC1,12%,-1.64
CC(C)Cc1cc(CNC2CCCC2)on1,-2%,0.39
Cc1cc(C(=O)N(c2ccccn2)C2CCCC2)nc(C(F)(F)F)n1,-13%,2.07
COC(=O)c1sc(NCc2nc(C3CC3)cs2)nc1C,-4%,0.8
